In PubChem BioAssay AID492949 (National Center for Advancing Translational Sciences (NCATS), 2010):
Inconclusive results, whose numbers are uncertain, are shown with a selection of clear calls. A potency beside an inconclusive call is a rough fit, not a confirmed value. Activity calls are given as the source filed them. Calls come from the whole dose curve; as a rule, active = well fitted activation curve with a large enough effect; inconclusive = small, poorly fitted or top-dose-only effect; inactive = no such curve, though single readings can be large or run the other way.

Target: Relaxin receptor 1 (Homo sapiens) (UniProt Q9HBX9)
Chain of UniProt Q9HBX9 (Q9HBX9 whole entry, looked up): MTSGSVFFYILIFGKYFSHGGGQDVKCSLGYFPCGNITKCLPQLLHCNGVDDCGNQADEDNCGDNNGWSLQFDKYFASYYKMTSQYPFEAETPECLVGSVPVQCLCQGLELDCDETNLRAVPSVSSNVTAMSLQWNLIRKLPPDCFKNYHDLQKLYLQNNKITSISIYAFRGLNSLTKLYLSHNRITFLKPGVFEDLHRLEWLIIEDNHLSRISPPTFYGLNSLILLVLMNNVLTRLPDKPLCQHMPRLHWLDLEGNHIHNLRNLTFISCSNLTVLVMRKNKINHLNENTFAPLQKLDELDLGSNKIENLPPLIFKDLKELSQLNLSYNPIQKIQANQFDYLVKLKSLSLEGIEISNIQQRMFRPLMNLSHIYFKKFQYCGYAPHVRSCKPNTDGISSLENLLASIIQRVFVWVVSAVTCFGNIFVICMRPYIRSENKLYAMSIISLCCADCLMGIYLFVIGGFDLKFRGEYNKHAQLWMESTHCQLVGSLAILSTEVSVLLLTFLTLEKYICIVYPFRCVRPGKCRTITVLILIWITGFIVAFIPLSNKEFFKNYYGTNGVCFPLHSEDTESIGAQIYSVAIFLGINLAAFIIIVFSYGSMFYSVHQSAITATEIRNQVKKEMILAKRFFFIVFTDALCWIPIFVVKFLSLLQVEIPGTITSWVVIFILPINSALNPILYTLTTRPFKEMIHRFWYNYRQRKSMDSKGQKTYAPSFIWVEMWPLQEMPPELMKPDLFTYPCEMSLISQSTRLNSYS
Assay: qHTS Assay for Agonists of the Relaxin Receptor RXFP1: THP1 Hit Validation; note: nearly all actives have a fitted effect of over 60% in size
Conditions: THP1-RXFP1 cells, cAMP TR-FRET, 30 min; series mostly up to 115 µM
Method in brief: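 Stable RXFP1 THP1 line; 30 min compound exposure at 37C in presence of Ro 20174; cAMP detected by HTRF after lysis.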
Potency is the fitted concentration of half-maximal effect; tags give direction and shape of the fitted curve.

Potency, inactive:
CC1C/C(=N\NC(N)=S)c2cc(Cl)ccc2S1 (stereo unspecified), Cc1cc2nc3ccc(=[N+](C)C)cc-3sc2cc1N, COc1ccc(OC)c(CNC(=O)C2CCN(C(=O)N(C)C)CC2)c1

Potency, inconclusive:
Cn1c(=O)c2sccc2n2c(CCCC(=O)NC3CCN(Cc4ccccc4)CC3)nnc12 38.9 µM [activator, partial curve], CC(C)OC(=O)CNc1n[nH]c(=S)[nH]c1=O 15.4 µM [activator, partial curve], CCN1CCN(C(=O)CCc2nnc3ccc(N4CCN(c5cccc(OC)c5)CC4)nn23)CC1 38.9 µM [activator, partial curve], O=S(=O)(Nc1ccccc1C(F)(F)F)c1ccc(-c2ccccn2)s1 8.7 µM [activator, full curve], CCN1CCN(c2nc3c(C)cccn3c(=O)c2/C=C(\C#N)C(=O)NCCOC)CC1 43.6 µM [activator, partial curve], CCS(=O)(=O)c1nc(S(=O)(=O)c2ccc(Cl)cc2)c(N2CCN(CCO)CC2)s1 30.9 µM [activator, partial curve], CCOC(=O)CSc1nc(=O)n2cc(C)ccc2n1 48.9 µM [activator, partial curve, poor fit], COC(=O)c1cc(CN2C(=O)c3ccccc3C2=O)c(O)c([N+](=O)[O-])c1 30.9 µM [activator, partial curve]
